# Reference: PubChem BioAssay AID1347417 (National Center for Advancing Translational Sciences (NCATS), 2020)
# The campaign covered roughly 120,000 compounds. About 5,300 (4.4%) were called active. The shares of active, inactive and inconclusive entries below differ from those in the screen. Calls follow the shape of the dose curve; as a rule, active = well fitted inhibition curve with a large enough effect; inconclusive = small, poorly fitted or top-dose-only effect; inactive = no such curve, though single readings can be large or run the other way. Potencies of inconclusive entries are doubtful fits and often do not repeat.
# Assay: qHTS Primary assay for Inhibitors of Plasmodium falciparum Dd2 growth in vitro; also: nearly all actives have a fitted effect of over 65% in size;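 as to activity, negative = inhibition: plate controls were DMSO vehicle for no effect and reference drug for full effect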
# Details: P. falciparum Dd2 growth, SYBR Green, 72 h; activity, negative = inhibition: at 28.9 µM (top of the series) unless noted; series mostly up to 28.9 µM
# Method in brief: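 Readout: SYBR Green fluorescence, 485 nm excitation, 535 nm emission, after ~16 h lysis at 37C. Before that, Dd2-infected red cells (2.5% hematocrit) grew 72 h with compound, 29 uM top final concentration.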
# Potency is read from the fitted curve at half-maximal effect; tags tell the direction and shape of the fitted curve.
Structure (SMILES),"activity, negative = inhibition",Potency,outcome
CCc1ccc(-n2c(-c3ccccc3)c(C)n3c4c(=O)n(C)c(=O)n(C)c4nc23)cc1,inactive: 8.92%,,
CC(=O)Nc1ccc(CN2Cc3[nH]cnc3C[C@H]2C(=O)NCc2ccc(C(F)(F)F)cc2)cc1,,"inconclusive: 17.8 µM [inhibitor, single point]",
COCC(=O)N1CCC(Oc2ccccc2C(=O)N(C)Cc2ncccc2C)CC1,inactive: -3.31%,,
O=C1NCCOCCCN(C(=O)Nc2ccccc2F)[C@H]2CCC[C@@H]12,,,inactive
CC(C)(C)C(=O)CSc1nc2ccsc2c(=O)n1Cc1ccccc1F,,"inconclusive: 10 µM [inhibitor, partial curve, poor fit]",
CNC(=O)CCC1CCN(C(=O)c2ccccc2F)CC1,inactive: -5.18%,,
CC1(c2noc(-c3ccccn3)n2)CCN(C(=O)C2CCN(C(=O)c3ccc(=O)[nH]c3)CC2)CC1,inactive: 14.6%,,
COCC(=O)N(C)Cc1ccc(-c2ccccc2)cc1,,"inconclusive: 10 µM [inhibitor, single point]",
CN(C)c1ccc(-c2ccnc(N[C@H]3CO[C@H]4[C@@H]3OC[C@H]4OC(=O)Nc3cccc(C#N)c3)n2)cc1,,"inconclusive: 11.2 µM [inhibitor, single point]",
O=c1c2sc3ccccc3c2n(Cc2cccc(C(F)(F)F)c2)c(=O)n1Cc1ccco1,,"inconclusive: 17.8 µM [inhibitor, single point]",
CN1CC(=O)N(c2ccc(Cl)cc2)Cc2c1ncnc2N1CCC(O)CC1,,"inconclusive: 3.98 µM [inhibitor, full curve, poor fit]",
O=C(N[C@H]1C[C@H]2C(=O)Nc3ccc(-c4cccs4)cc3C(=O)N2C1)c1ccccc1,,"inconclusive: 10 µM [inhibitor, partial curve]",
CCOCCCNC(=O)NC(CCC(C)C)c1c(-n2cccc2)sc2c1CCN(C)C2 (stereo not drawn),inactive: -13.2%,,
COc1ccc(CN2C(=O)COC[C@H]2C(=O)Nc2ccc(OC)c(C(F)(F)F)c2)cc1,,"inconclusive: 3.98 µM [inhibitor, single point]",
O=C(c1ccoc1)N1CCC(c2nc(-c3ccccc3)no2)C1 (stereo not drawn),inactive: -3.22% [at 5.79 µM],,
O=C(c1ccc2[nH]ccc2c1)N1CCCC(n2cc(-c3nc(C4CC4)no3)nn2)C1 (stereo not drawn),,"inconclusive: 1.26 µM [inhibitor, partial curve, poor fit]",
CC(C)(C)CN1CC[C@H]2COC(=O)N2c2cc(F)ccc2C1,inactive: 8.01% [at 44.1 µM],,
NC1CC(c2cc(N3CCN(c4cnccn4)CC3)nc(C3CC3)n2)C1 (stereo not drawn),,"inconclusive: 17.8 µM [inhibitor, single point]",
CC(C)CNC(=O)C1Cn2cccc2C(=O)N1Cc1cccnc1 (stereo not drawn),,active: 7.94 µM,
O=C(O)C[C@@H]1CCN(C(=O)NC2CCCCC2)C[C@@H]1CCN1CCCCC1,,,inactive [at 44.1 µM]
COC[C@@H]1CN(C(=O)c2nccc3ccccc23)C[C@H]1c1ccccn1,,,inactive
O=C(C1CCCC1)N1CC2(CCCCN2CC2CC2)Cc2ccccc21 (stereo not drawn),inactive: -16.8%,,
Cn1c(CNC(=O)CC2CCOCC2)nc2ccccc21,inactive: 62.5%,,

Structure (SMILES),"activity, negative = inhibition",Potency,outcome
CCc1ccc(NC(=O)N2CCC(OC3CCN(S(C)(=O)=O)CC3)CC2)cc1,,"inconclusive: 3.98 µM [inhibitor, single point]",
Cc1ccccc1S(=O)(=O)N1CCC2(CC1)CC(OCC1CC1)CCO2 (stereo not drawn),,"inconclusive: 7.08 µM [inhibitor, partial curve, poor fit]",
Cc1cc(C)c2c(-n3cccc3)c(C(=O)NCCCN3CCCCC3C)sc2n1 (stereo not drawn),,"inconclusive: 17.8 µM [inhibitor, single point]",
COc1cc(-c2noc(-c3cc(C(C)C)[nH]n3)n2)cc(OC)c1OC,,"inconclusive: 11.2 µM [inhibitor, single point]",
O=C(C[C@H]1NC(=O)c2ccccc2NC1=O)Nc1nc(-c2ccncc2)cs1,,"inconclusive: 10 µM [inhibitor, single point]",
CCc1n[nH]c(CC2CCN(C(=O)COc3ccc(C)cc3)CC2)n1,inactive: -3.66%,,
CCc1cc(=O)n(CC(=O)Nc2cccc(C(C)C)c2)c(N2CCOCC2)n1,,"inconclusive: 0.891 µM [inhibitor, full curve, poor fit]",
CNC(=O)COc1ccc(NC(=O)c2ccc(-c3nn(C)c(=O)c4ccccc34)cc2)cc1,,"inconclusive: 7.08 µM [inhibitor, partial curve, poor fit]",
CNC(=O)c1cnn2c1CN(C(C)=O)CC2,inactive: 12.1% [at 44.1 µM],,
Cn1ccc(NC(=O)[C@@H]2C[C@H](c3ccc(F)cc3)N(Cc3ccccc3Cl)C2)n1,,"inconclusive: 2.51 µM [inhibitor, full curve]",
CCCn1c(=N)c(C(=O)NC2CCCC2)cc2c(=O)n3cccc(C)c3nc21,,"inconclusive: 1.26 µM [inhibitor, full curve]",
Cc1ccc(NC(=O)Cn2nc3n(c2=O)CCCCC3)cc1C,inactive: 13.8%,,
O=C(Cc1ccccc1)Nc1ccc([C@H]2OCC(=O)N[C@@H]2CO)cc1,inactive: 27.8% [at 44.1 µM],,
CC1(C)C(=O)N(CCOc2ccccc2)[C@H]2CN(Cc3ccc4c(c3)CCO4)C[C@@H]2[S+]1(=O)[O-],,"inconclusive: 17.8 µM [inhibitor, single point]",
CNC(=O)[C@@H]1CN(C(=O)c2nn(C)c3ccccc23)C[C@H]1c1n[nH]c(C)n1,inactive: 37.9%,,
COC[C@@H]1CN(Cc2ccccc2OC(C)C)C[C@H]1C(N)=O,,"inconclusive: 2.24 µM [inhibitor, partial curve, poor fit]",
CC(C)CNC(=O)N1CCOc2ccc(CN3CCOCC3)cc2C1,,"inconclusive: 17.8 µM [inhibitor, single point]",
COC[C@@H]1CN(C(=O)c2cc3ccc(OC)cc3[nH]2)C[C@H]1C(N)=O,inactive: -18.9%,,
COCCC(=O)N[C@H]1CC[C@]2(C)CCC([C@H](C)C(=O)N3CCc4ccccc4C3)[C@H](O)[C@H]2[C@@H]1C (stereo partly drawn),,"inconclusive: 8.91 µM [inhibitor, single point]",
COc1cccc(CC(=O)N2CCCCCC2CN2CCC(OC)CC2)c1 (stereo not drawn),,"inconclusive: 3.98 µM [inhibitor, single point]",
CC(C)Cc1cnc(C2CCCN(C(=O)OC(C)(C)C)C2)[nH]1 (stereo not drawn),,active: 7.08 µM,
COc1ccc(Nc2cc3c(cn2)CN(CCc2ccccc2)CCN3)cc1,,"inconclusive: 2.51 µM [inhibitor, partial curve, poor fit]",
CCOc1cccc(CNC(=O)C2CCCN(c3cnc4nc(C)c(C)nc4c3)C2)c1 (stereo not drawn),,"inconclusive: 0.126 µM [inhibitor, partial curve, poor fit]",

Structure (SMILES),"activity, negative = inhibition",Potency,outcome
COc1ccc(OCCn2c(C)nc3cc(C)c(C)cc32)cc1,,"inconclusive: 17.8 µM [inhibitor, single point]",
O=C1NC(=NC2CCCC2)C2(CCN(Cc3cccnc3)C2)N1c1cc(F)cc(F)c1 (stereo not drawn),,"inconclusive: 3.98 µM [inhibitor, partial curve]",
Cc1ccc2c(c1)N1C(=O)OC[C@@H]1CCN(C(=O)c1ccnc(Cl)c1)C2,inactive: 14% [at 44.1 µM],,
CCc1ccc(NC(=O)Cn2ccn3nc(-c4ccc(F)cc4)c(CO)c3c2=O)cc1,inactive: -10.4%,,
C[S+](=O)([O-])CCn1ncc2cc(OCc3cccc(-c4cccc(F)c4)c3)ccc21,,"inconclusive: 25.1 µM [inhibitor, single point]",
CCCN(C)c1nccnc1OC1CCN(C(=O)C2CC2)C1 (stereo not drawn),,"inconclusive: 10 µM [inhibitor, partial curve, poor fit]",
O=C(N[C@H]1CCN2C(=O)c3cc(Br)ccc3NC(=O)[C@@H]2C1)c1ccco1,,"inconclusive: 8.91 µM [inhibitor, partial curve, poor fit]",
COCCOc1ccnc(-c2noc([C@@H]3CCCN3CC(C)(C)C)n2)c1,,"inconclusive: 10 µM [inhibitor, single point]",
Cc1noc(C)c1CC(=O)NC1CCc2nnc(C)n2CC1 (stereo not drawn),inactive: 47.5%,,
CC(C)c1noc(-c2cn(C3CCCN(C(=O)c4cccs4)C3)nn2)n1 (stereo not drawn),,"inconclusive: 0.562 µM [inhibitor, partial curve, poor fit]",
CNC(=O)c1cccc(S(=O)(=O)N2CCC3(CCCNC3)C2)c1 (stereo not drawn),inactive: -5.52%,,
CCCN1CCC2(CCN(C(=O)c3cccc(OC)c3)CC2)Oc2ccccc21,,,inactive
O=C(c1ccc(F)cc1)N1CCOC[C@H](Oc2ccccc2)C1,inactive: 10.4% [at 44.1 µM],,
Cc1ccc(OCC(=O)N2[C@@H]3CC[C@H]2CC(NC(=O)c2ccncc2)C3)cc1 (stereo partly drawn),,,inactive
COc1cccc(C(=O)N2CCc3c([nH]c4ccccc34)C2c2ccc(SC)cc2)c1 (stereo not drawn),,"inconclusive: 11.2 µM [inhibitor, single point]",
Cc1cc(F)ccc1OC1CNC1,,"inconclusive: 25.1 µM [inhibitor, partial curve]",
CCOC(=O)N1CCN(c2ncc3c(n2)CC(c2ccccc2O)CC3=O)CC1 (stereo not drawn),inactive: -24.9%,,
COc1ccccc1NC(=O)CSc1nnc2c3ccccc3n(C(C)C)c2n1,,"inconclusive: 11.2 µM [inhibitor, single point]",
COc1ccc(/C=C\c2onc(C)c2S(=O)(=O)N2CCC(C(=O)Nc3cccc(Cl)c3)CC2)cc1,,"inconclusive: 7.94 µM [inhibitor, partial curve, poor fit]",
COc1ccc(CCNC(=O)CCc2c(C)nc3cc(-c4ccccc4OC)nn3c2C)c(OC)c1,,"inconclusive: 15.8 µM [inhibitor, single point]",
Cc1occc1C(=O)N1CCC2(CC1)N=C(CC(C)C)NC2=O,inactive: -5.06%,,
CC(c1cccs1)N(C)C(=O)Nc1ccc(Cl)cc1 (stereo not drawn),,"inconclusive: 5.62 µM [inhibitor, full curve, poor fit]",
